# Reference: PubChem BioAssay AID361 (National Center for Advancing Translational Sciences (NCATS), 2006)
# About 600 (1.2%) of roughly 51,000 compounds were called active. This list was built around the results that the source calls inconclusive (neither active nor inactive); the mix of calls is not that of the screen. No stated cut-off is given here; in the data, active means potency below about 11 µM; inconclusive means mostly about 12 µM to 25 µM; inactive means weaker than that;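 the screen sought inhibitors and activators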. No potency is given beside an inconclusive call; the fits are too rough.
# System: pyruvate kinase (Bacillus stearothermophilus)
# Experiment: Pyruvate Kinase
# Conditions: purified pyruvate kinase, luminescence ATP production; ribose 5-phosphate activator present at AC10
# Procedure, shortened: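 Luminescence read-out: coupled luciferase detection of ATP formed after 2 h RT incubation of 10 nM enzyme with 2 mM PEP, 0.1 mM ADP, 0.7 nM ribose 5-phosphate, 50 mM imidazole pH 7.2, 7 mM MgCl2. Data normalized to full stimulation/inhibition controls.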
# Potency means the concentration at half of the fitted maximal effect.
row,SMILES,Potency
1,NC(=O)c1cnn2c(C(F)(F)F)cc(-c3ccc(F)cc3)nc12,active: 2.68 µM
2,Cc1ccc2cccc(S(=O)(=O)N3CCN(c4cccc(Cl)c4)CC3)c2n1,inconclusive [increasing]
3,Cc1ccc2c(c1)N(CCC(=O)NCc1ccc3c(c1)OCO3)C(=O)CO2,inconclusive [increasing]
4,Nc1nc(SCc2ccc(Cl)cc2Cl)n[nH]1,inconclusive [increasing]
5,CN(c1ccccc1C(=O)NCC1CCCO1)S(C)(=O)=O (configuration not stated),inactive: > 57 µM
6,COCCNS(=O)(=O)c1cc(OC)c(Cl)cc1Cl,inconclusive [increasing]
7,COc1ccc(-c2csc(N(CCCN3CCOCC3)C(=O)c3ccco3)n2)cc1,inconclusive [decreasing]
8,O=C(CSc1cc(Cl)ccc1Cl)NCC1CCCO1 (configuration not stated),inconclusive [increasing]
9,COc1ccc(C2C3=C(CCCC3=O)Nc3nc(C(F)(F)F)nn32)cc1OC (configuration not stated),inactive: > 57 µM
10,O=c1c2c(nc3n1CCCCC3)sc1c(O)cccc12,inconclusive [decreasing]
11,COc1ccc2cc(CN(CCc3ccccc3)Cc3nnnn3CC3CCCO3)c(=O)[nH]c2c1 (configuration not stated),inactive: > 57 µM
12,Cc1ccc(S(=O)(=O)N2CCCC2C(=O)Nc2nc3c(s2)CCCC3)cc1 (configuration not stated),inconclusive [increasing]
13,CCOC(=O)N1CCN(S(=O)(=O)c2ccc(C)c(C)c2)CC1,inconclusive [increasing]
14,CCCCCCn1c(CN2CCCCC2)nc2c1c(=O)n(C)c(=O)n2C,inactive: > 57 µM
15,COc1ccc(-n2ccnc2SCC(=O)NCc2ccc3c(c2)OCO3)cc1,inactive: > 57 µM
16,COc1ccc(COC(=O)c2ccc(N3CCCC3=O)cc2)cc1F,inactive: > 57 µM
17,CSc1snc(SCC(N)=O)c1C#N,inactive: > 57 µM
18,CN1C(=O)c2oc3ccccc3c(=O)c2C1c1ccccn1 (configuration not stated),inconclusive [increasing]
19,c1ccc(-n2nnc3c(N4CCOCC4)ncnc32)cc1,active: 9.21 µM
20,O=C(OC(C(=O)NCc1cccs1)c1ccccc1Cl)c1ccco1 (configuration not stated),inconclusive [increasing]
21,O=C(c1cc(-c2ccc3c(c2)OCO3)on1)N1CCOCC1,inconclusive [decreasing]

row,SMILES,Potency
1,CN(C)c1ccc(/C=c2\sc3n(c2=O)CCCN=3)cc1,active: 2.67 µM
2,CCOc1ccc(-c2nnn(CC(=O)c3cc(OC)ccc3OC)n2)cc1,inactive: > 57 µM
3,CC(C)Sc1oc(-c2ccco2)nc1S(=O)(=O)c1ccc(F)cc1,inactive: > 57 µM
4,COc1ccc2cnn(Cc3ccccc3)c(=O)c2c1OC,inconclusive [increasing]
5,CN(C)S(=O)(=O)c1ccc(N2CCN(S(=O)(=O)c3ccc(F)cc3)CC2)c(Cl)c1,active: 6.06 µM
6,Cc1nc2c(c(=O)n1CC1CCCO1)c1nc3ccccc3nc1n2Cc1ccc2c(c1)OCO2 (configuration not stated),inactive: > 25.6 µM
7,CNC(=O)c1[nH]cnc1C(=O)Nc1cccc(OC)c1,inconclusive [decreasing]
8,COC(=O)C1CN(S(=O)(=O)c2ccc(C)cc2)CCN1S(=O)(=O)c1ccc(C)cc1 (configuration not stated),inconclusive [increasing]
9,CCOC(=O)N1CCN(S(=O)(=O)c2ccc(C)c(C)c2C)CC1,inconclusive [increasing]
10,CS(=O)(=O)N(CC(=O)N1CCc2ccccc2C1)c1ccc2c(c1)OCO2,inconclusive [increasing]
11,O=C1c2ccccc2-c2onc3ccc(NCCCn4ccnc4)c1c23,inconclusive [decreasing]
12,COc1ccc(-c2nc3c(Br)c(N)c(Br)cc3o2)cc1,inconclusive [decreasing]
13,O=C(CN1CCOCC1)Nc1ccc(S(=O)(=O)N2CCCCCC2)cc1,inconclusive [increasing]
14,COc1ccc(-c2oc3ncnc(NCCCN4CCOCC4)c3c2-c2ccc(OC)cc2)cc1,inactive: > 57 µM
15,O=C(Nc1ncccc1O)c1cccc(S(=O)(=O)N2CCc3ccccc32)c1,inconclusive [increasing]
16,CN1CCc2nc(NC(=O)c3cccc(S(=O)(=O)N4CCc5ccccc54)c3)sc2C1,inconclusive [increasing]
17,CCN1CCN(/C=N/c2nc3c(s2)CCCC3)CC1,inconclusive [decreasing]
18,CN1CCN(C(=O)c2ccc(S(=O)(=O)c3ccc(Br)cc3)cc2)CC1,inconclusive [increasing]
19,C=CCOc1c(CNc2nccs2)cccc1OCC,inconclusive [decreasing]
20,CCS(=O)(=O)NCCc1cc2cc(C)c(C)cc2[nH]c1=O,inactive: > 57 µM
21,Oc1ccccc1-c1cc(-c2ccc3c(c2)OCCO3)n[nH]1,active: 1.86 µM

row,SMILES,Potency
1,Cc1csc(NC(=O)C2CCCN(S(=O)(=O)c3ccc(Br)s3)C2)n1 (configuration not stated),inconclusive [increasing]
2,COC(=O)CSc1nc(N)c2c3c(sc2n1)CCCC3,inconclusive [decreasing]
3,CC1(C)Oc2ccc(NC(=O)C3COc4ccccc4O3)cc2O1 (configuration not stated),inconclusive [decreasing]
4,CN(c1ccc(C(=O)O)cc1)S(=O)(=O)c1ccc(Cl)cc1,inconclusive [increasing]
5,CNc1oc(Cc2cccc3ccccc23)nc1C#N,inconclusive [increasing]
6,O=C(c1coc2ccccc2c1=O)N1CCN(c2cccc(C(F)(F)F)c2)CC1,inconclusive [increasing]
7,O=C(CCNS(=O)(=O)c1cccc2nsnc12)Nc1ccc2c(c1)OCCO2,inconclusive [increasing]
8,COc1cccc(S(=O)(=O)Nc2ccc(C(=O)NCc3ccco3)cc2)c1,inconclusive [increasing]
9,COC(=O)c1c(-n2cnnn2)sc(C)c1C,inconclusive [increasing]
10,CCOC(=O)c1sc(=S)n(-c2cc(OC)ccc2OC)c1N,inactive: > 57 µM
11,CCn1c(COc2cccc(OC)c2)nnc1SCC(=O)Nc1ccccc1C(=O)OC,inactive: > 57 µM
12,Cc1nn2cc(-c3ccccc3)nc2s1,inconclusive [decreasing]
13,Cc1ccc(C)n1/N=C1/NC(=O)CS1,inconclusive [decreasing]
14,CC(=O)N1CCc2cc(NC(=O)c3ccc(C)cc3)ccc21,inconclusive [decreasing]
15,N=c1cc(C2(O)CCCCC2)n2c(nc3ccccc32)s1,active: 1.11 µM
16,CCn1c(C)nc2cc(-c3nc4n(n3)Cc3ccccc3-4)ccc21,active: 0.0948 µM
17,Cc1nc2cc(NC(=O)N3c4ccccc4CC3C)ccc2o1 (configuration not stated),inconclusive [decreasing]
18,N#Cc1c(/N=C/c2cccs2)sc2c1CCC2,inconclusive [decreasing]
19,CC(C)OC(=O)CSc1nc2ccccc2s1,inconclusive [increasing]
20,N#Cc1c(/N=C/c2ccco2)sc2c1CCCCC2,active: 0.523 µM
21,O=C(COC(=O)c1cccs1)c1ccccc1,inconclusive [decreasing]

row,SMILES,Potency
1,COc1ccc(Br)cc1CNc1ccc(O)cc1,inactive: > 57 µM
2,Cc1ccc(Cl)c2c1NC(=O)C2(O)CC(=O)c1ccccc1O (configuration not stated),inconclusive [increasing]
3,CCOc1ncccc1C(=O)Nc1ccc(Cl)cc1,active: 3.77 µM
4,CCN1CCN(Cc2ccc(NC(=O)Nc3cccs3)cc2)CC1,inconclusive [decreasing]
5,Cc1ccc(C)c(C(=O)n2cnnc2N)c1,inactive: > 57 µM
6,Cn1cnc2cc(NS(=O)(=O)c3ccc(Br)cc3)ccc21,inconclusive [increasing]
7,CNC(=O)c1cc2c(=O)n3cccc(C)c3nc2n1C,inactive: > 57 µM
8,COc1ccc(N=Cc2c(O)[nH]c3ccccc23)cc1OC,active: 4.61 µM
9,Nc1nnc(-c2cccc(Cl)c2Cl)c(N)n1,inconclusive [increasing]
10,Cc1c(/C(O)=C2\C(=O)C(=O)N(CCCN(C)C)C2c2ccccc2)cnn1-c1ccccc1 (configuration not stated),inactive: > 25.6 µM
11,COC(=O)c1c(N)sc(C(=O)N2CCOCC2)c1C,inactive: > 57 µM
12,O=c1oc2ccccc2cc1-c1nc2ccccc2o1,inconclusive [decreasing]
13,N#CCCN1CCN(C(=S)c2ccc(-c3ccc(Cl)cc3)o2)CC1,inconclusive [decreasing]
14,CCOc1nc(OCC)nc(N2CCC(C)CC2)n1,inactive: > 57 µM
15,CCOc1ccccc1N1CCN(S(=O)(=O)c2ccc(Cl)s2)CC1,inconclusive [increasing]
16,O=C(CN1C(=O)c2ccccc2S1(=O)=O)N1CCc2ccccc2C1,inconclusive [increasing]
17,Cc1cc(Nc2ccc(C)c(F)c2)n2ncnc2n1,inconclusive [decreasing]
18,CC(C)OCCCn1c(-c2ccco2)nc2nc3ccccc3nc21,inactive: > 57 µM
19,Cn1cccc1C(=O)NC(=O)COC(=O)Cc1coc2ccc3ccccc3c12,inconclusive [increasing]
